Measured values: PMC4336329 (PLoS ONE, 2015)
Among all 310,000 compounds or so, about 14,000 (4.5%) showed an effect of 50% or more. Effects have a minus sign here. Some of the results follow.

Target: human ether-à-go-go-related gene (hERG) potassium channel (human, UniProt Q12809)
Test: primary screen, population patch clamp on CHO cells stably expressing hERG
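Note: peak tail current of the secondary pulse compared with the same well before compound.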

human ether-à-go-go-related gene (hERG) potassium channel, sequence (Q12809 whole entry, looked up): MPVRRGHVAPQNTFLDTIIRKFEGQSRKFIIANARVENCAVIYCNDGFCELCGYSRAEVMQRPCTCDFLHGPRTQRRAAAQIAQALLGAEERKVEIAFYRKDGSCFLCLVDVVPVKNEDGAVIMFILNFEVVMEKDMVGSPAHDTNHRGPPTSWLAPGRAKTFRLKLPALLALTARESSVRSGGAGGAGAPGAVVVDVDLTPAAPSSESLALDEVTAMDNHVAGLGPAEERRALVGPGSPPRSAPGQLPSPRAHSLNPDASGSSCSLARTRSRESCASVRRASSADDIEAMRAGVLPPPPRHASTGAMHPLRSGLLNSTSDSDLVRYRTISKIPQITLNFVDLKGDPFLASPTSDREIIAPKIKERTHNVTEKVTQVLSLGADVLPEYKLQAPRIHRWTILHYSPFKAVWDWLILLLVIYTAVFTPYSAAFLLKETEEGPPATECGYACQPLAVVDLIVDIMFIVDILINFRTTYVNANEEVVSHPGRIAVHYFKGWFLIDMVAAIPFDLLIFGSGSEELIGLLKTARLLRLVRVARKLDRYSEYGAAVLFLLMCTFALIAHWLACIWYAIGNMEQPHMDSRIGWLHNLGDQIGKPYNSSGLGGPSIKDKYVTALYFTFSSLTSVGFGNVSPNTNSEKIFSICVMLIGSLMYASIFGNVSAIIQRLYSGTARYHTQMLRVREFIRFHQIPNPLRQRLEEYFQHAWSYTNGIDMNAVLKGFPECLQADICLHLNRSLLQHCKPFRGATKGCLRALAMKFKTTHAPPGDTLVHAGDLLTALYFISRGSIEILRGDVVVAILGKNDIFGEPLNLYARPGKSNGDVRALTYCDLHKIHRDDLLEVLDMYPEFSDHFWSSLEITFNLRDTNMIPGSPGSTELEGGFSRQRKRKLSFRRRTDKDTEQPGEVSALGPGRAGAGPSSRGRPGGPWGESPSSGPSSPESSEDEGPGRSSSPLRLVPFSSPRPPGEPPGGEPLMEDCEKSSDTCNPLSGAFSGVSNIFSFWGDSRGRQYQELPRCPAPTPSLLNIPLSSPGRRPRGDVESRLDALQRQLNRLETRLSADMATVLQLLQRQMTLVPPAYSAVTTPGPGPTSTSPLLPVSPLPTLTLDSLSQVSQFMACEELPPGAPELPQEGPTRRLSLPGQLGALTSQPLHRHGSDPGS

SMILES	hERG current change (%, negative = inhibition) at 10uM [%]
COc1ccc(Cl)cc1NC(=O)CCCN1C(=O)CCC1=O	14.4
CCOc1ccc(NC(=O)C(CC)n2nc(C)c3c(C)n(-c4ccccc4)nc3c2=O)cc1 (stereo not drawn)	-30.1
Cl.Fc1ccc(OCCCCN2CCOCC2)cc1	-4.81
COc1ccccc1OCCCC(=O)Nc1ccc2c(c1)OCCO2	5.75
Cc1c(C)n(CC(O)CNCCO)c2ccccc12.O=C(O)C(=O)O (stereo not drawn)	5.33
COc1cccc(/C=N/n2c(C3CCCCC3)n[nH]c2=S)c1O	1.87
C/C(=N/Nc1ccc([N+](=O)[O-])cc1)c1c[nH]c2ccccc12	27.2
O=C(N/N=C/c1ccccn1)c1cc(-c2ccc(Br)cc2)nc2ccccc12	16.9
CC(=O)Nc1ccc(NC(=O)c2cc[n+]([O-])cc2)cc1	25.2
Nc1ccccc1C(=O)Nc1nccs1	7.16
CCOC(=O)C(=O)Nc1cc(C)nn1-c1nc2ccccc2[nH]1	8.82
COc1ccc(CCN2C(=O)C(C)=C(C)C2=O)cc1OC	11.7
COc1ccc(CN2C(=O)c3ccccc3C(/C=N\OCc3ccc(F)cc3)C2=O)cc1 (stereo not drawn)	-2.55
COc1ccc(CCCc2nnc(SCC(=O)Nc3nc(C)cs3)n2C)cc1C	-10.7
CN1C(=S)SC(C)(C)C1/[N+]([O-])=C/c1cccnc1 (stereo not drawn)	11.9
Cn1c(=O)[nH]c(=O)c2c1nc(N1CCN(C(c3ccccc3)c3ccccc3)CC1)n2CCO	8.58
Cn1c(SCC(=O)NC2CCCCC2)nnc1-c1cccc(N)c1	7.53
Cc1cccc(NC(=S)N2CCCN(c3ncccc3[N+](=O)[O-])CC2)c1	-16.7
CCO[C@@H]1OC(C(=O)N2CCN(Cc3ccc4c(c3)OCO4)CC2)=C[C@H](C2CCCCC2)[C@H]1CCCO	-17.8
CC1CCCC(NC(=O)COC(=O)c2c[nH]c(=O)[nH]c2=O)C1C (stereo not drawn)	5.59
CC(=O)Nc1nc2nc(-c3ccccc3)cc(-c3ccccc3)n2n1	-18.5
Clc1ccc(Nc2ncn[nH]2)c(Cl)c1	9.46
CC1=[N+](C)N(c2ccccc2)C(=O)C1N=Cc1ccccc1Cl (stereo not drawn)	-2.36

SMILES	hERG current change (%, negative = inhibition) at 10uM [%]
Cc1nc(C(=O)NCc2ccccc2)sc1C1(C)CC(c2ccccc2)=NO1 (stereo not drawn)	-15.6
CCCn1c(SCC(=O)N(C)CC(=O)Nc2ccc(C)cc2)n[nH]c1=O	-3.2
O=C(O)CCCCCNC(=O)c1ccccc1Br	16.4
Cc1ccccc1Nc1nc(N)nc(CSc2nc3ccccc3c(=O)n2CCCO)n1	-18.8
COc1ccc(CN2CCN(C(=O)CCC(=O)Nc3nnc(CC(C)C)s3)CC2)cc1F	-17.9
COc1ccc(-c2cc(-c3n[nH]c(=S)n3-c3cc(OC)ccc3OC)[nH]n2)cc1	13.9
O=C(COc1ccccc1)N=C1SC2CS(=O)(=O)CC2N1c1ccccc1 (stereo not drawn)	9.3
N#CCc1c(C#N)c(N)nc(Nc2ccccc2)c1C#N	23.9
CCCCOC(=O)/C(=C/C=C/c1ccccc1)NC(=O)c1ccccc1	-34.2
Oc1ccc(/C=N/NC(=S)Nc2cccnc2)cc1O	18.1
Cn1c(=O)[nH]c(=O)c2c1ncn2CCN1CCOCC1	17.8
Cc1ccc(Cl)cc1C1=CC(=O)C[C@H](c2ccc(F)cc2)C1	3.6
S=C(NCc1ccco1)Nc1ccc(Cl)c(Cl)c1	-2.14
CCCc1ccc(OCC(O)CN2CCN(c3ccccc3)CC2)cc1.Cl (stereo not drawn)	-46.5
CCC(C)NC(=O)c1c(N)n(CC2CCCO2)c2nc3ccccc3nc12 (stereo not drawn)	3.05
COc1ccc(/C=N/NC(=O)CC(=O)NC2CCCCC2)cc1	5.89
O=C(CN1CCC(C(=O)c2ccc(F)cc2)CC1)Nc1ccc(F)cc1	-64.7
COc1ccc(NC(=S)NN2CCN(C)CC2)cc1OC	4.78
COCCNC(=O)Cn1cc2c(n1)CCC(C)C2 (stereo not drawn)	21.2
O=C1C(=C(O)c2ccccc2)C(=O)c2ccccc21	-12.7
Cc1ccc(NC(=O)c2cc(S(=O)(=O)N3CCc4ccccc43)cn2C)cc1	13.2
O=C(CSCc1ccccc1Cl)NNC(=S)Nc1ccccc1	30.9
O=c1cc(O)c2c(=O)[nH]c(=O)n(-c3ccccc3)c2[nH]1	6.7

SMILES	hERG current change (%, negative = inhibition) at 10uM [%]
COc1ccccc1NC(=S)NNC(=O)c1cc(C)nn1C	10.4
O=C(c1ccc2nc(N3CCOCC3)sc2c1)N1CCC(Cc2ccccc2)CC1	-63.2
COc1cccc2cc(-c3cc(=O)oc4ccc(OC(=O)N(C)C)cc34)oc12	14.3
O=C(Cn1cnc2cc([N+](=O)[O-])ccc2c1=O)NCCc1ccc(F)cc1	-39.8
Cc1ccc(-c2csc3nc[nH]c(=S)c23)cc1	11.7
Cc1cccc(-c2nnc(SCC(=O)N3CCOCC3)o2)c1	18.9
O=C1c2ccccc2S(=O)(=O)c2cc(N3CCN(C(=O)c4ccccc4)CC3)ccc21	-26.1
Cc1cc(C)c(NC(=O)COC(=O)/C=C/c2cccc(C(F)(F)F)c2)c(C)c1	5.67
O=C(O)c1ccccc1C(=O)Nc1cccc([N+](=O)[O-])c1	12.3
COC(=O)c1ccc(NC(=S)NCc2ccco2)cc1	-4.7
CCCCCCSc1cccc(-c2nc3ccc(C)cn3c2NCc2ccccc2)c1.O=C(O)C(F)(F)F	-6.77
COC(=O)c1cc[n+](CC(=O)c2ccccc2)cc1.[Br-]	-3.18
O=c1c2ccccc2n(Cc2ccc(Cl)cc2)c(=O)n1Cc1ccco1	4.77
CN(CCO)CCC(=O)NC1(C)CS(=O)(=O)CC1S(=O)(=O)[O-].[Na+] (stereo not drawn)	-2.92
CCCn1c(NCc2cccc(OC)c2OC)nc2ccccc21	-13.9
CCOc1ccc(N2CC(C(=O)NCc3cccc(C)c3)CC2=O)cc1 (stereo not drawn)	-37.5
CC(C)N(CC(=O)Nc1ccc(Cl)cc1C(F)(F)F)C(=O)CCl	6.07
COc1ccccc1-c1nnc2sc(-c3cc4ccccc4o3)nn12	-5.14
O=C1ON=C(c2ccccc2)/C1=C/c1ccco1	1.09
Cc1nn2c(-c3ccc(F)cc3)ccnc2c1Cl	17
Cc1nn(C)c(C(=O)N/N=C/c2ccc(Br)cc2)c1Cl	7.93
C=C(C)Cn1c(SCC(=O)N/N=C/c2c(O)ccc3ccccc23)nc2ccccc2c1=O	12.9
CCOC(=O)N1CCC(Nc2ncnc3c2cnn3-c2ccc(C)cc2C)CC1	-4.1

SMILES	hERG current change (%, negative = inhibition) at 10uM [%]
CCCOc1ccc([N+](=O)[O-])c(N)c1	4.27
COc1ccc(S(=O)(=O)N2CCOC23CCN(S(C)(=O)=O)CC3)cc1	4.71
Cc1c(Cl)c([N+](=O)[O-])nn1CCCC(=O)Nc1sc2c(c1C(N)=O)CCC(C)C2 (stereo not drawn)	3.85
Cc1c(N)cccc1-n1cccc1	16.2
CCn1cnc2c1c(=O)n(CC(=O)NCC(F)(F)F)c(=O)n2Cc1ccccc1	26.6
Cc1ccc(C)c(NC(=S)NC(C)C(c2ccccc2)N2CCN(C)CC2)c1 (stereo not drawn)	-48
O=C(Cc1ccc(Cl)cc1Cl)Nc1ccncc1Cl	6.3
O=C(Cn1cnc(S(=O)(=O)N2CCCC2)c1)Nc1ccc(OC(F)(F)F)cc1	22.5
CC(Oc1ccc(Cl)cc1)C(=O)NNC(=S)NC(=O)c1ccco1 (stereo not drawn)	8.25
O=C(Nc1ccccc1)c1cc(S(=O)(=O)N2CCSCC2)ccc1Cl	-13.5
CCN1C(=O)/C(=C\c2ccc(F)cc2)N=C1SCC(=O)NCc1ccco1	-13
Cc1c(Cl)cccc1NC(=O)CCN1C(=O)C2CC=CCC2C1=O (stereo not drawn)	9.81
Cc1ccc(C(=O)N2CCN(c3ccc([N+](=O)[O-])cc3)CC2)o1	-80.2
O=C(NNC(=S)Nc1ccc(F)cc1)c1ccccc1OC(F)F	11.1
Cc1ccc(C(=O)CSc2nc(-c3ccccc3)cc(=O)[nH]2)cc1	-26.1
COc1ccc(-c2nc3ccccn3c2CN2CCN(c3ccccc3F)CC2)cc1	7.02
COc1c(C)cccc1C(=O)Nc1ccc(N2CCN(C(=O)c3ccccc3C)CC2)cc1	-4.14
COc1ccccc1C1N(c2ccc(F)cc2)C(=O)C2CCCN21 (stereo not drawn)	10
COc1ccc(OC)c(NC=C2C(=O)OC3(CCCCC3)OC2=O)c1	-25.8
CC1CN(C)CCC1OC(=O)c1ccccc1.Cl (stereo not drawn)	3.85
O=c1[nH]c(/C(Cl)=C/c2cccc(F)c2)nc2cc(C(F)(F)F)ccc12	8.55
